Laboratory results published in the supplement of paper PMC4604168 (melanoma cell lines).
Some of the results follow. Single values are uncertain, as repeats are few or missing.

Assays:
Test in all cases: cell count relative to DMSO control; melanoma cells; higher = more viable cells
Details in all cases: library dose: standard library concentration; 72 h
SkMel28 = system: SkMel28
SkMel2 = system: SkMel2
SkMel30 = system: SkMel30
SkMel5 = system: SkMel5
UACC257 = system: UACC257
UACC62 = system: UACC62
WM115 = system: WM115
WM1716 = system: WM1716
WM1745 = system: WM1745
WM3526 = system: WM3526
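Note: cells treated in 1,536-well plates, then fixed and DAPI-stained, with nuclei counted from automated high-throughput microscope images.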

Cn1c(=O)n(-c2ccc(C(C)(C)C#N)cc2)c2c3cc(-c4cnc5ccccc5c4)ccc3ncc21 + C[C@@H]1CCN(C(=O)CC#N)C[C@@H]1N(C)c1ncnc2[nH]ccc12 [CP690550] (first compound 0.02 µM, partner dose 5 µM)
cell count (SkMel28): 58.8% | cell count (SkMel2): 70.2% | cell count (SkMel30): 74.8% | cell count (SkMel5): 72.7% | cell count (UACC257): 100% | cell count (UACC62): 102% | cell count (WM115): 96% | cell count (WM1716): 80.6% | cell count (WM1745): 96.4% | cell count (WM3526): 68.2%

Cn1c(=O)n(-c2ccc(C(C)(C)C#N)cc2)c2c3cc(-c4cnc5ccccc5c4)ccc3ncc21 + OCc1c[nH]c2ccccc12 [Indole-3-carbinol] (first compound 0.02 µM, partner dose 4 µM)
cell count (SkMel28): 42.8% | cell count (SkMel2): 63.1% | cell count (SkMel30): 62.6% | cell count (SkMel5): 82.4% | cell count (UACC257): 106% | cell count (UACC62): 65.8% | cell count (WM115): 99.4% | cell count (WM1716): 83% | cell count (WM1745): 66.6% | cell count (WM3526): 73.3%

CC(C)C[C@H](NC(=O)[C@H](Cc1ccccc1)NC(=O)c1cnccn1)B(O)O [Bortezomib] + COc1cc2c(Oc3ccc4[nH]c(C)cc4c3F)ncnc2cc1OCCCN1CCCC1 [cediranib] (first compound 0.005 µM, partner dose 2 µM)
cell count (SkMel28): 43.6% | cell count (SkMel2): 51.8% | cell count (SkMel30): 34.1% | cell count (SkMel5): 29.4% | cell count (UACC257): 90.6% | cell count (UACC62): 76.5% | cell count (WM115): 35.6% | cell count (WM1716): 17.6% | cell count (WM1745): 24.2% | cell count (WM3526): 22.4%

Cc1cc(Nc2cc(N3CCN(C)CC3)nc(/C=C/c3ccccc3)n2)n[nH]1 + COc1cc(Nc2ncc(F)c(Nc3ccc4c(n3)NC(=O)C(C)(C)O4)n2)cc(OC)c1OC [Tamatinib] (first compound 0.2 µM, partner dose 2 µM)
cell count (SkMel28): 64.7% | cell count (SkMel2): 78.2% | cell count (SkMel30): 111% | cell count (SkMel5): 63.7% | cell count (UACC257): 66.1% | cell count (UACC62): 64% | cell count (WM115): 61.7% | cell count (WM1716): 70.7% | cell count (WM1745): 35.1% | cell count (WM3526): 88.5%

Cc1cn(-c2cc(NC(=O)c3ccc(C)c(Nc4nccc(-c5cccnc5)n4)c3)cc(C(F)(F)F)c2)cn1 [nilotinib] + COc1ccc(Cl)c(Nc2nc3ccccc3nc2NS(=O)(=O)c2cccc(NC(=O)C(C)(C)N)c2)c1 [XL147] (first compound 1 µM, partner dose 4 µM)
cell count (SkMel28): 79.4% | cell count (SkMel2): 107% | cell count (SkMel30): 83.6% | cell count (SkMel5): 69% | cell count (UACC257): 104% | cell count (UACC62): 96.7% | cell count (WM115): 98.3% | cell count (WM1716): 108% | cell count (WM1745): 92.5% | cell count (WM3526): 115%

Cc1cc(Nc2cc(N3CCN(C)CC3)nc(/C=C/c3ccccc3)n2)n[nH]1 + Cn1c(Nc2ccc(C(F)(F)F)cc2)nc2cc(Oc3ccnc(-c4ncc(C(F)(F)F)[nH]4)c3)ccc21 [CHIR265] (first compound 0.2 µM, partner dose 0.4 µM)
cell count (SkMel28): 43.1% | cell count (SkMel2): 66.9% | cell count (SkMel30): 60.6% | cell count (SkMel5): 39.6% | cell count (UACC257): 85.4% | cell count (UACC62): 38.6% | cell count (WM115): 34.4% | cell count (WM1716): 69.3% | cell count (WM1745): 55.2% | cell count (WM3526): 43.9%

Cn1c(=O)n(-c2ccc(C(C)(C)C#N)cc2)c2c3cc(-c4cnc5ccccc5c4)ccc3ncc21 + Cc1nc(Nc2ncc(C(=O)Nc3c(C)cccc3Cl)s2)cc(N2CCN(CCO)CC2)n1 [dasatanib] (first compound 0.02 µM, partner dose 0.02 µM)
cell count (SkMel28): 47.8% | cell count (SkMel2): 80.6% | cell count (SkMel30): 71.3% | cell count (SkMel5): 71% | cell count (UACC257): 80% | cell count (UACC62): 66.9% | cell count (WM115): 54.3% | cell count (WM1716): 42.8% | cell count (WM1745): 44.4% | cell count (WM3526): 78.9%

Cc1cc(Nc2cc(N3CCN(C)CC3)nc(/C=C/c3ccccc3)n2)n[nH]1 + C#Cc1cccc(Nc2ncnc3cc(OCCOC)c(OCCOC)cc23)c1 [erlotinib] (first compound 0.2 µM, partner dose 4 µM)
cell count (SkMel28): 35.5% | cell count (SkMel2): 61.7% | cell count (SkMel30): 49.4% | cell count (SkMel5): 52.3% | cell count (UACC257): 83.1% | cell count (UACC62): 48.1% | cell count (WM115): 39.6% | cell count (WM1716): 66.3% | cell count (WM1745): 36.1% | cell count (WM3526): 57.5%

Cc1cn(-c2cc(NC(=O)c3ccc(C)c(Nc4nccc(-c5cccnc5)n4)c3)cc(C(F)(F)F)c2)cn1 [nilotinib] + NCC(=O)Nc1ccc(-n2nc(C(F)(F)F)cc2-c2ccc3c(ccc4ccccc43)c2)cc1 [OSU03012] (first compound 1 µM, partner dose 5 µM)
cell count (SkMel28): 21% | cell count (SkMel2): 26.3% | cell count (SkMel30): 29.5% | cell count (SkMel5): 38.5% | cell count (UACC257): 84.6% | cell count (UACC62): 35.2% | cell count (WM115): 57.2% | cell count (WM1716): 71.1% | cell count (WM1745): 57.4% | cell count (WM3526): 44.7%

Cc1cc(Nc2cc(N3CCN(C)CC3)nc(/C=C/c3ccccc3)n2)n[nH]1 + O=C(CCCCCCC(=O)Nc1ccccc1)NO [vorinostat] (first compound 0.2 µM, partner dose 0.4 µM)
cell count (SkMel28): 39.2% | cell count (SkMel2): 62.2% | cell count (SkMel30): 93.4% | cell count (SkMel5): 62.1% | cell count (UACC257): 82% | cell count (UACC62): 73.3% | cell count (WM115): 41.8% | cell count (WM1716): 83.2% | cell count (WM1745): 37.9% | cell count (WM3526): 76.7%

Cc1cc(Nc2cc(N3CCN(C)CC3)nc(/C=C/c3ccccc3)n2)n[nH]1 + CO[C@@H]1[C@H](N(C)C(=O)c2ccccc2)C[C@H]2O[C@]1(C)n1c3ccccc3c3c4c(c5c6ccccc6n2c5c31)C(=O)NC4 [Midostaurin] (first compound 0.2 µM, partner dose 0.4 µM)
cell count (SkMel28): 59.4% | cell count (SkMel2): 75.4% | cell count (SkMel30): 86.8% | cell count (SkMel5): 54.5% | cell count (UACC257): 70.1% | cell count (UACC62): 69.8% | cell count (WM115): 47.2% | cell count (WM1716): 63.6% | cell count (WM1745): 34.5% | cell count (WM3526): 104%

Cc1cn(-c2cc(NC(=O)c3ccc(C)c(Nc4nccc(-c5cccnc5)n4)c3)cc(C(F)(F)F)c2)cn1 [nilotinib] + CC1(C)NC(=O)N(c2ccc([N+](=O)[O-])c(C(F)(F)F)c2)C1=O [nilutamide] (first compound 1 µM, partner dose 5 µM)
cell count (SkMel28): 98.8% | cell count (SkMel2): 93.8% | cell count (SkMel30): 104% | cell count (SkMel5): 61.9% | cell count (UACC257): 85.6% | cell count (UACC62): 86.9% | cell count (WM115): 71.6% | cell count (WM1716): 72.3% | cell count (WM1745): 55.6% | cell count (WM3526): 99.4%

Cn1c(=O)n(-c2ccc(C(C)(C)C#N)cc2)c2c3cc(-c4cnc5ccccc5c4)ccc3ncc21 + CO[C@@H]1[C@H](N(C)C(=O)c2ccccc2)C[C@H]2O[C@]1(C)n1c3ccccc3c3c4c(c5c6ccccc6n2c5c31)C(=O)NC4 [Midostaurin] (first compound 0.02 µM, partner dose 0.4 µM)
cell count (SkMel28): 38.6% | cell count (SkMel2): 49.8% | cell count (SkMel30): 83.6% | cell count (SkMel5): 54.2% | cell count (UACC257): 67.1% | cell count (UACC62): 70% | cell count (WM115): 52.8% | cell count (WM1716): 49% | cell count (WM1745): 37.7% | cell count (WM3526): 61.6%

Cc1cn(-c2cc(NC(=O)c3ccc(C)c(Nc4nccc(-c5cccnc5)n4)c3)cc(C(F)(F)F)c2)cn1 [nilotinib] + C=CCn1c(=O)c2cnc(Nc3ccc(N4CCN(C)CC4)cc3)nc2n1-c1cccc(C(C)(C)O)n1 [MK1775] (first compound 1 µM, partner dose 0.1 µM)
cell count (SkMel28): 51.2% | cell count (SkMel2): 70.8% | cell count (SkMel30): 87.6% | cell count (SkMel5): 38.2% | cell count (UACC257): 109% | cell count (UACC62): 57.7% | cell count (WM115): 65.7% | cell count (WM1716): 85.5% | cell count (WM1745): 33.9% | cell count (WM3526): 65.2%

Cc1cc(Nc2cc(N3CCN(C)CC3)nc(/C=C/c3ccccc3)n2)n[nH]1 + OCc1c[nH]c2ccccc12 [Indole-3-carbinol] (first compound 0.2 µM, partner dose 4 µM)
cell count (SkMel28): 55.2% | cell count (SkMel2): 76.4% | cell count (SkMel30): 78.7% | cell count (SkMel5): 70.8% | cell count (UACC257): 100% | cell count (UACC62): 76.9% | cell count (WM115): 54.2% | cell count (WM1716): 88% | cell count (WM1745): 80.4% | cell count (WM3526): 59.1%

COc1ccc(C2=N[C@@H](c3ccc(Cl)cc3)[C@@H](c3ccc(Cl)cc3)N2C(=O)N2CCNC(=O)C2)c(OC(C)C)c1 [Nutlin-3] + CC1(C)NC(=O)N(c2ccc([N+](=O)[O-])c(C(F)(F)F)c2)C1=O [nilutamide] (first compound 0.5 µM, partner dose 5 µM)
cell count (SkMel28): 53.4% | cell count (SkMel2): 77.2% | cell count (SkMel30): 82.7% | cell count (SkMel5): 50.4% | cell count (UACC257): 69.3% | cell count (UACC62): 57% | cell count (WM115): 55.8% | cell count (WM1716): 61.4% | cell count (WM1745): 48.9% | cell count (WM3526): 79.6%

Cc1cc(Nc2cc(N3CCN(C)CC3)nc(/C=C/c3ccccc3)n2)n[nH]1 + Cn1c(=O)n(-c2ccc(C(C)(C)C#N)cc2)c2c3cc(-c4cnc5ccccc5c4)ccc3ncc21 [NVP-BEZ235] (first compound 0.2 µM, partner dose 0.02 µM)
cell count (SkMel28): 56.1% | cell count (SkMel2): 65.4% | cell count (SkMel30): 77.8% | cell count (SkMel5): 59.5% | cell count (UACC257): 87.8% | cell count (UACC62): 75.3% | cell count (WM115): 52.6% | cell count (WM1716): 77.5% | cell count (WM1745): 60.9% | cell count (WM3526): 68.5%

Cn1c(=O)n(-c2ccc(C(C)(C)C#N)cc2)c2c3cc(-c4cnc5ccccc5c4)ccc3ncc21 + Cc1cc(N2CCOCC2)cc2[nH]c(-c3c(NC[C@@H](O)c4cccc(Cl)c4)cc[nH]c3=O)nc12 [BMS536924] (first compound 0.02 µM, partner dose 1 µM)
cell count (SkMel28): 64.3% | cell count (SkMel2): 61.8% | cell count (SkMel30): 72% | cell count (SkMel5): 45% | cell count (UACC257): 81.4% | cell count (UACC62): 63.9% | cell count (WM115): 78.3% | cell count (WM1716): 75.7% | cell count (WM1745): 53.2% | cell count (WM3526): 43.6%

Cc1cn(-c2cc(NC(=O)c3ccc(C)c(Nc4nccc(-c5cccnc5)n4)c3)cc(C(F)(F)F)c2)cn1 [nilotinib] + CN(C)S(=O)(=O)c1ccc2c(c1)/C(=C/c1cc3c([nH]1)CCCC3)C(=O)N2 [SU6656] (first compound 1 µM, partner dose 2 µM)
cell count (SkMel28): 67.5% | cell count (SkMel2): 98.1% | cell count (SkMel30): 82.3% | cell count (SkMel5): 61.7% | cell count (UACC257): 86.4% | cell count (UACC62): 72.4% | cell count (WM115): 67.8% | cell count (WM1716): 83.8% | cell count (WM1745): 52.9% | cell count (WM3526): 56.6%

Cc1cc(Nc2cc(N3CCN(C)CC3)nc(/C=C/c3ccccc3)n2)n[nH]1 + CC(C)C[C@H](NC(=O)[C@H](Cc1ccccc1)NC(=O)c1cnccn1)B(O)O [Bortezomib] (first compound 0.2 µM, partner dose 0.005 µM)
cell count (SkMel28): 26.2% | cell count (SkMel2): 34.1% | cell count (SkMel30): 23.5% | cell count (SkMel5): 34.2% | cell count (UACC257): 76.7% | cell count (UACC62): 67.7% | cell count (WM115): 23.1% | cell count (WM1716): 37.9% | cell count (WM1745): 18.8% | cell count (WM3526): 31.9%
